From the supplement of paper PMC10126150
Sequences with one replicate were seen in a single cluster, so their values are uncertain.
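Further: ATP exposure 15 min at 22 °C before imaging.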

Each sequence was assayed on ATP (assay: switch fluorescence ratio, 500 uM ATP over buffer (Cy3 cluster intensity, sum of 5 cycles each) (fold (ratio)); higher = stronger signal-on switching upon ATP binding; sequences stand for … in TCGTCGGCAGCGTCAGATGTGTATAAGAGACAGTTTTTTTTTTTTTTTTTTTTTTTTT…TC). Details: aptamer strand: ATP DNA aptamer (quencher-CACCTGGGGGAGTATTGCGGAGGAAGG + anchor), 100 nM annealed; ATP concentration: 500 uM; one replicate.
Outline: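 After annealing to 100 nM quencher-labelled ATP aptamer, Cy3-labelled switching-strand clusters on a modified Illumina MiSeq flow-cell were imaged in selection buffer. A second image followed after 15 min with 500 uM ATP at 22 °C, and five such buffer/ATP cycles were done, each separated by NaOH stripping and re-annealing. The fluorescence ratio, averaged per switch-domain sequence, is summed target-cycle over summed buffer-cycle Cy3 intensity per cluster, with clusters outside 100-1000 RFU excluded.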
TGGGCGGCAC was tested, and the switch fluorescence ratio was 1. TGGGCGTAGT was tested, and the switch fluorescence ratio was 1.01. Sequence TGGGCGTGGT has a switch fluorescence ratio of 1.01. Work on TGGGCTATTG yielded a switch fluorescence ratio of 1.03. For TGGGCTTCAA, the switch fluorescence ratio was 1.04. In the case of TGGGCTTTGT, the switch fluorescence ratio was 0.991. TGGGGAAGG showed a switch fluorescence ratio of 0.975. For TGGGGACT, the switch fluorescence ratio was 1.01. Work on TGGGGATGAA yielded a switch fluorescence ratio of 1.02. TGGGGCTGCA gave a switch fluorescence ratio of 0.938. In the case of TGGGGGACAA, the switch fluorescence ratio was 0.955. TGGGGGCGA showed a switch fluorescence ratio of 0.983. TGGGTACTTC gave a switch fluorescence ratio of 0.963. TGGGTAGAT gave a switch fluorescence ratio of 0.975. With TGGGTAGCTT the switch fluorescence ratio was 0.996. Work on TGGGTCACGG yielded a switch fluorescence ratio of 0.98. Sequence TGGGTGCCAG has a switch fluorescence ratio of 0.962. With TGGGTGCGTT the switch fluorescence ratio was 1.01. With TGGGTGGAAA the switch fluorescence ratio was 0.987. TGGGTTCGT was tested, and the switch fluorescence ratio was 0.997. With TGGGTTCT the switch fluorescence ratio was 1. In the case of TGGGTTCTTT, the switch fluorescence ratio was 0.998. TGGGTTGAAA gave a switch fluorescence ratio of 0.99. For TGGGTTTCAT, the switch fluorescence ratio was 1.01. In the case of TGGTAACAAT, the switch fluorescence ratio was 0.987. TGGTAATTGT gave a switch fluorescence ratio of 0.973. Work on TGGTACATGT yielded a switch fluorescence ratio of 1. For TGGTAGAATC, the switch fluorescence ratio was 1.01. With TGGTAGCAAA the switch fluorescence ratio was 1.02. TGGTAGCCGA showed a switch fluorescence ratio of 0.969. With TGGTCAAGGA the switch fluorescence ratio was 0.989. With TGGTCAATGA the switch fluorescence ratio was 1.02. TGGTCCAAAT gave a switch fluorescence ratio of 0.995. TGGTCCTGGA was tested, and the switch fluorescence ratio was 0.985. With TGGTCTATGT the switch fluorescence ratio was 0.963. TGGTCTGCGT showed a switch fluorescence ratio of 1.01. With TGGTGAATGT the switch fluorescence ratio was 1.11. In the case of TGGTGCCAAA, the switch fluorescence ratio was 1.04. For TGGTGCTAGT, the switch fluorescence ratio was 1.01. For TGGTGGAGGA, the switch fluorescence ratio was 0.981. Sequence TGGTGGATG has a switch fluorescence ratio of 1.04. TGGTGGGTC was tested, and the switch fluorescence ratio was 0.963. For TGGTGTAGGA, the switch fluorescence ratio was 1.02. Work on TGGTGTCATG yielded a switch fluorescence ratio of 0.964. Work on TGGTGTGTAA yielded a switch fluorescence ratio of 0.929. With TGGTGTTAT the switch fluorescence ratio was 0.993. For TGGTTCACCT, the switch fluorescence ratio was 1.04. Sequence TGGTTCCAAG has a switch fluorescence ratio of 1.84. Sequence TGGTTCTCTT has a switch fluorescence ratio of 0.999. TGGTTCTGCC gave a switch fluorescence ratio of 1.02. TGGTTTCACG showed a switch fluorescence ratio of 0.967. TGGTTTGCGA gave a switch fluorescence ratio of 1.01. TGTAAAATGG was tested, and the switch fluorescence ratio was 1.03. In the case of TGTAAAATTA, the switch fluorescence ratio was 1.02. In the case of TGTAAATA, the switch fluorescence ratio was 1.01. TGTAAG was tested, and the switch fluorescence ratio was 0.982. TGTAAGATAA showed a switch fluorescence ratio of 1.01. With TGTAAGATTT the switch fluorescence ratio was 0.986. For TGTAAGCAT, the switch fluorescence ratio was 1.91. With TGTAAGCTTT the switch fluorescence ratio was 1.01. In the case of TGTAAGTCGG, the switch fluorescence ratio was 0.96. TGTAAGTTAC showed a switch fluorescence ratio of 1.09. With TGTAATCTCG the switch fluorescence ratio was 1.01. Sequence TGTACGGACT has a switch fluorescence ratio of 1.29. TGTACGTATA showed a switch fluorescence ratio of 1.09. With TGTACTATCG the switch fluorescence ratio was 0.991. Work on TGTAGCGGCG yielded a switch fluorescence ratio of 1.01. For TGTAGGAGAA, the switch fluorescence ratio was 1. TGTAGGCCTA was tested, and the switch fluorescence ratio was 1.01. TGTAGGGCAA was tested, and the switch fluorescence ratio was 0.987. With TGTAGTCCTG the switch fluorescence ratio was 0.969. Work on TGTAGTGGGA yielded a switch fluorescence ratio of 1.06. In the case of TGTATCTG, the switch fluorescence ratio was 0.991. Sequence TGTATGAGTT has a switch fluorescence ratio of 0.987. TGTATTGCCC gave a switch fluorescence ratio of 1.01. Sequence TGTATTGTAG has a switch fluorescence ratio of 0.974. Work on TGTATTTGCT yielded a switch fluorescence ratio of 1.02. TGTATTTTG was tested, and the switch fluorescence ratio was 0.996. Work on TGTCACAGGA yielded a switch fluorescence ratio of 1.06. Sequence TGTCACCG has a switch fluorescence ratio of 0.974. In the case of TGTCACTCAC, the switch fluorescence ratio was 1.29. With TGTCAGACGA the switch fluorescence ratio was 0.987. In the case of TGTCAGGCAA, the switch fluorescence ratio was 1.09. For TGTCAGTACT, the switch fluorescence ratio was 1.04. With TGTCATTGAG the switch fluorescence ratio was 0.991. Sequence TGTCCAAGGC has a switch fluorescence ratio of 1.05. TGTCCCCAGG showed a switch fluorescence ratio of 3.22. TGTCCCCGCC gave a switch fluorescence ratio of 1.08. In the case of TGTCCCGGCA, the switch fluorescence ratio was 1.05. For TGTCCGGCGG, the switch fluorescence ratio was 1. Work on TGTCGGATGG yielded a switch fluorescence ratio of 0.94. Sequence TGTCGGTTAG has a switch fluorescence ratio of 0.963. For TGTCTGATTT, the switch fluorescence ratio was 1. Work on TGTCTGCCGC yielded a switch fluorescence ratio of 1.08. TGTCTGT gave a switch fluorescence ratio of 1.12. With TGTCTTTCT the switch fluorescence ratio was 0.995. TGTCTTTTTG showed a switch fluorescence ratio of 0.996. TGTGAATCCT gave a switch fluorescence ratio of 1.04. Sequence TGTGAATGGA has a switch fluorescence ratio of 0.961. TGTGACAGCG gave a switch fluorescence ratio of 0.998.
